Results as given in PMC12103069, “Structure predictions of MuRF1‐UBE2 complexes identify amino acid residues governing interaction selectivity for each MuRF1‐E2 pair” (The Febs Journal, 2025).

Target: T1, GST-MuRF1 (MuRF1 full length, TRIM63) (Rattus norvegicus, red fluorescent dye NT-647, covalently, by amine coupling)
T1 construct: MuRF1 / TRIM63, Rattus norvegicus, full length; Cloned in pGEX6P3; also called MuRF1FL; fluorescent MuRF1
Test: other fluorescence titration; change in the initial fluorescence of dye-labelled GST-MuRF (10 nM, constant) with a 16-sample serial dilution of the E2; MonolithX (NanoTemper), premium capillaries, 100% MST power, 25 °C; 50 mM HEPES pH 7.4, 150 mM NaCl, 0.005% Tween20, 0.1% dextran
Settings: both partners purified

B1: UBE2L3 F63A (enzyme)
chain: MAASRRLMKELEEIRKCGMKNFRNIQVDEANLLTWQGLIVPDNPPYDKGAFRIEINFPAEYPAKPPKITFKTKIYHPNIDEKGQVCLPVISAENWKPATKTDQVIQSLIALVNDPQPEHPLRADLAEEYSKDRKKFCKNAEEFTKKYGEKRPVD
notes: UBE2L3, Mus musculus; source: mutated form synthesized by GeneCust; E. coli Rosetta (DE3), purified (Ni-NTA)
Binder B1 has a Kd of 6.9 µM.
